Experimental data taken from publication PMC4336329 (PLoS ONE, 2015).
Among all 310,000 compounds or so, about 14,000 (4.5%) showed an effect of 50% or more. The effect is printed as a negative number. This is one part of the list.

Each molecule was assayed against human ether-à-go-go-related gene (hERG) potassium channel (human, UniProt Q12809) (assay: primary screen, population patch clamp on CHO cells stably expressing hERG).
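Note: peak tail current of the secondary pulse compared with the same well before compound.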

human ether-à-go-go-related gene (hERG) potassium channel, sequence (Q12809 whole entry, looked up): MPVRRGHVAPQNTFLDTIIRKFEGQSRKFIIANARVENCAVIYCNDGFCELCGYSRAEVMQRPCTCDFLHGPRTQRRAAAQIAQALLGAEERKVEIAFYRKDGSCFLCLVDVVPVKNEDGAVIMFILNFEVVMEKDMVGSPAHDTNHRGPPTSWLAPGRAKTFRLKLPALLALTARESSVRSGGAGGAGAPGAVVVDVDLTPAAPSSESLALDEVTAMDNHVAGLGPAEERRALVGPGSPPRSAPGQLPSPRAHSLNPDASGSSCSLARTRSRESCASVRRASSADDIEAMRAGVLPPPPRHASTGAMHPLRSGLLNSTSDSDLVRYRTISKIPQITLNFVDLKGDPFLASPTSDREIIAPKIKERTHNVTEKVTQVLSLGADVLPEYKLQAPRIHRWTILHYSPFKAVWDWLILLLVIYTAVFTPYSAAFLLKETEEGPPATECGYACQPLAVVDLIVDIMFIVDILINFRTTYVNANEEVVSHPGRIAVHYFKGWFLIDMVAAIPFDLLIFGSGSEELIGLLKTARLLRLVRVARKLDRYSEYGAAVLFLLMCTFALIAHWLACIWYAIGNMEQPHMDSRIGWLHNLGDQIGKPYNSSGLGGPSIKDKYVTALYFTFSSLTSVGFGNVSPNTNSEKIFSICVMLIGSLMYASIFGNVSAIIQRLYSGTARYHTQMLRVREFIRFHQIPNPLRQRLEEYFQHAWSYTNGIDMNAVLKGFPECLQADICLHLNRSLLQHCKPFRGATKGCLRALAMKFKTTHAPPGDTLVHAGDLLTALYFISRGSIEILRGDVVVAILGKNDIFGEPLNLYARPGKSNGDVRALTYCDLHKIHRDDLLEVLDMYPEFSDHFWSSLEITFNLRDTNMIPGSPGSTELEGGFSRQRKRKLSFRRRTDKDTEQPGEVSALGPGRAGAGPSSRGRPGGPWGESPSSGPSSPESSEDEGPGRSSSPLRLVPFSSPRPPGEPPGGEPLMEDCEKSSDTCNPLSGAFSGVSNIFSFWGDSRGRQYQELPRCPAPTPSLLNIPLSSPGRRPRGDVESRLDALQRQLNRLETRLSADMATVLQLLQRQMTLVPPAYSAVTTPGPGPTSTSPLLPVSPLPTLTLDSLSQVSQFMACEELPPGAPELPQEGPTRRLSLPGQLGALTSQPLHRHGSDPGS

| SMILES | hERG current change (%, negative = inhibition) at 10uM [%] |
| --- | --- |
| CCN(CC)c1ccc(NC(=O)c2ccc3c(c2)OCO3)c(C)c1 | 19.5 |
| CCOc1ccc2[nH]c3c(=O)n(CCc4ccc(OC)cc4)cnc3c2c1 | -22.1 |
| CCC(=O)Nc1ccc(NC(=S)Nc2ccccc2)cc1 | -13.4 |
| Cc1ccc(NC(=O)CN(C)C(=O)CN2C(=O)NC(C)(c3ccccc3)C2=O)cc1 (stereo not drawn) | 1.11 |
| COC(=O)[C@@H]1[C@H]2C[C@H]3c4[nH]c5ccccc5c4CCN3C[C@@H]2CC[C@@H]1O.Cl | -22 |
| CCOC(=O)c1ccc(NC(=S)NC(=O)C2CCCC2)cc1 | 1.18 |
| NC(=O)CN(c1ccc(Oc2ccccc2)cc1)S(=O)(=O)c1ccccc1 | 2.54 |
| COc1cc([N+](=O)[O-])ccc1NC(=O)Nc1nc2c(s1)CCCC2 | 11.7 |
| CCCN(CCC)S(=O)(=O)c1ccc(C(=O)NNc2nc(-c3ccccc3)c3cc(Br)ccc3n2)cc1 | 26.2 |
| O=C(NCc1ccco1)c1cc(-c2cccs2)on1 | -12.6 |
| Cc1cc(C)nc(SCC(=O)NCC2COc3ccccc3O2)n1 (stereo not drawn) | -0.733 |
| O=C(Nc1ccc(Cl)cc1)Nc1cccc(C(=O)O)c1 | 7.8 |
| CCOC(=O)c1ccc(CNC(=O)CSc2nc(NC(=O)c3ccccc3)c3c(C)c(C)oc3n2)cc1 | -4.21 |
| O=C(Nc1ccc2c(c1)OCCO2)c1ccc(Cl)cc1Cl | 17.3 |
| Cc1onc(-c2ccccc2)c1C(=O)NCc1ccccn1 | 8.66 |
| C/C=C\C(=O)Nc1cccc(C2=NOC3(C2)C[C@@H](C(N)=O)N(C(=O)c2ccc(OC)cc2)C3)c1 (stereo partly drawn) | -3.93 |
| CCN(CC)C(=O)CN(c1ccc(F)c(Cl)c1)S(C)(=O)=O | 2.55 |
| CCC(Sc1ncnc2c1c(-c1ccccc1)cn2-c1ccc(OC)cc1)C(=O)OC (stereo not drawn) | -7.16 |
| CCCc1nnc(NC(=O)c2cccc(OC)c2)s1 | -2.69 |

| SMILES | hERG current change (%, negative = inhibition) at 10uM [%] |
| --- | --- |
| CCCN1CC23C=CC(O2)C(C(=O)O)C3C1=O (stereo not drawn) | 9.39 |
| CC(Oc1ccccc1)C(=O)N1CCC2(CC1)CC(=O)c1ccccc1O2 (stereo not drawn) | -65.7 |
| COC(=O)c1ccc(-n2c(C)cc(/C=N/n3cnnc3)c2C)cc1 | 4.18 |
| COc1ccccc1NC(=S)NCc1ccc(F)cc1 | -2.09 |
| CCc1nc(SCc2ccccn2)c2c(=O)n(C)c(=O)n(C)c2n1 | 0.896 |
| CSc1ncc(C(=O)O)n1-c1ccc(F)cc1 | 3.73 |
| CCC(=O)Nc1ccc(NC(=O)c2cc3ccccc3o2)cc1 | -2.45 |
| Cc1ccc(SC(C)c2nc(-c3cccnc3)no2)cc1 (stereo not drawn) | -30.5 |
| CC(C)(C)NC(=O)/C(=C\c1ccccc1F)NC(=O)c1ccc([N+](=O)[O-])cc1 | -35.3 |
| Cc1ccc(N=C2NC(=O)CS2)c(C)c1 | 6.77 |
| COc1ccc(OCc2cc(C(=O)N3CCN(C4CCCC4)CC3)no2)c(Cl)c1 | -29.6 |
| CS(=O)(=O)c1cnc(-c2ccccc2)nc1Sc1ccc(F)cc1 | 8.21 |
| O=C(NCCN1CCOCC1)C1CCCN(S(=O)(=O)c2ccc(F)cc2)C1 (stereo not drawn) | -2.52 |
| Cc1csc(NC(=O)C2CCN(S(=O)(=O)c3ccc4c(c3)oc(=O)n4C)CC2)n1 | -11.5 |
| CC(C)CNC(=O)COC(=O)c1cncc(Br)c1 | 10 |
| O=C(O)CCCn1cc(NC(=O)c2cccc(F)c2)cn1 | -18.9 |
| O=C(CCN1N=C(c2ccccc2)CCC1=O)NCCCN1CCOCC1 | 21.2 |
| Cc1cc(C)nc(SCCc2ccncc2)n1.Cl | 9.82 |
| CCNC(=S)NNC(=O)c1csc2c1CCC(C)C2 (stereo not drawn) | 7.64 |

| SMILES | hERG current change (%, negative = inhibition) at 10uM [%] |
| --- | --- |
| O=C(NCCSc1ccc(Br)cc1)c1ccccc1 | -7.12 |
| COc1ccccc1NC(=S)N(Cc1ccc(C)cc1)Cc1ccccn1 | -39.1 |
| O=C(CNc1ccc(F)cc1Cl)Nc1cccc(S(=O)(=O)N2CCCCC2)c1 | 9.81 |
| CCCCCCCN1N=C(C)C(C(=O)c2ccccc2)C1=O (stereo not drawn) | -5.06 |
| COc1ccc(NC(=O)C2CCC(=O)N2S(=O)(=O)c2ccc(C)cc2)cc1Cl (stereo not drawn) | 14.9 |
| COc1ccccc1-c1coc2c(CN3CCCC(C)C3)c(O)ccc2c1=O (stereo not drawn) | -2.44 |
| COc1cc2c(cc1OC)C(c1cccc([N+](=O)[O-])c1)N(C(=O)c1ccc(F)cc1)CC2 (stereo not drawn) | -26.2 |
| COC(=O)Cc1ccc(NC(=O)c2cccs2)cc1 | 8.53 |
| Cc1ccccc1OCC(=O)OCC(=O)Nc1cc(C(F)(F)F)ccc1N1CCOCC1 | 12.9 |
| O=[N+]([O-])c1ccc(-c2csc(N/N=C/c3cccnc3)n2)cc1 | 57.2 |
| COc1ccc(C2=NOC(C(=O)Nc3cc(C)nn3-c3ccccc3)C2)cc1OC (stereo not drawn) | -13.5 |
| O=C(NCC1CCCO1)C1CCC(=O)N1Cc1ccc(F)cc1 (stereo not drawn) | 21.1 |
| COc1ccc(OCc2cc(=O)[nH]c3ccccc23)cc1 | 4.48 |
| CC(C)(C)c1nnc(NC(=O)c2ccc(Cl)nc2)s1 | 4.04 |
| CCN(CC)S(=O)(=O)c1cccc(C(=O)Nc2cc(C)cc(C)c2)c1 | -32.6 |
| CC1(C)OC(C(N)=O)C(C(N)=O)O1 (stereo not drawn) | -9.79 |
| CC1CCCCN1S(=O)(=O)c1ccc2c(c1)CCN2C(=O)C1CCC1 (stereo not drawn) | 8.19 |
| O=C1c2ccccc2C(=O)N1CCn1nc(Cl)nc1Cl | 2.3 |
| COc1ccc(O)c(CN2CCCC(C(=O)Nc3cccc(-n4cccn4)c3)C2)c1 (stereo not drawn) | -14.9 |
